In all, about 33,000 sequences were measured (“E-score (-0.5 to 0.5)”: median about -0.011, highest 2% from about 0.28 on). The list shows a part of the results.
Molecular target: T1, Gcr1 (UniProt P07261)
T1 sequence: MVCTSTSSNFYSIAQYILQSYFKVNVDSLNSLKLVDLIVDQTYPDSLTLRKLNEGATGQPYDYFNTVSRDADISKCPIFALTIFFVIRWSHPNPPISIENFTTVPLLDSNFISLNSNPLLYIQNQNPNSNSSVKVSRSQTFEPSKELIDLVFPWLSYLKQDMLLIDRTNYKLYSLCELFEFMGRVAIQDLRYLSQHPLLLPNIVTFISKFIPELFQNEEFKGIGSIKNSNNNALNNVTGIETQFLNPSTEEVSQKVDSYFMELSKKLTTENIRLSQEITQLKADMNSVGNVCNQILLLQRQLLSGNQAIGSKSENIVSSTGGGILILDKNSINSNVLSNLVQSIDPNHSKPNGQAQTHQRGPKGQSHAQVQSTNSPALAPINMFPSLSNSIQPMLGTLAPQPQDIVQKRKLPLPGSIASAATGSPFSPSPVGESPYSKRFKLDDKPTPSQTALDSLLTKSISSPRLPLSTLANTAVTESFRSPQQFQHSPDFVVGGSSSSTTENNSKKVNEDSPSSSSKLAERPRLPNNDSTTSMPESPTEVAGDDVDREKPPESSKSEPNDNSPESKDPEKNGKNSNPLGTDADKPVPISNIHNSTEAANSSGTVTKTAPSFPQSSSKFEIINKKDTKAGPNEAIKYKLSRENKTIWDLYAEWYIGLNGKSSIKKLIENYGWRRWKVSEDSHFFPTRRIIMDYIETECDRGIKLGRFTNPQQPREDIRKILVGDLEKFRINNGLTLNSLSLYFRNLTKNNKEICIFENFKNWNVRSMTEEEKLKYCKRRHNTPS
Assay: PBM E-score (8-mer binding enrichment) (E-score (-0.5 to 0.5)); higher = stronger / more preferred TF binding; most listed sequences are background and not binding sites
Details: protein concentration: 100 nM; construct: GST-full length
Method in brief: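 The E-score, a modified Wilcoxon-Mann-Whitney statistic, was computed by the Universal PBM Analysis Suite for every ungapped eight-base word pooled with its reverse complement. Scans behind it were normalised with masliner after bound GST-tagged yeast transcription factors were detected with fluorescent anti-GST. The proteins, at about 100-200 nM, had been applied to universal all-10-mer Agilent arrays made double-stranded by primer extension.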

Sequence | PBM E-score
CAGAAACG | 0.104
GCGTCACC | -0.0167
AACCTTCC | 0.0262
CTGAAATA | 0.0471
CCATAAGA | 0.224
CTCATGAG | -0.125
GAACTAGC | -0.0573
GCTTCAGA | -0.00295
ATCCAAAA | 0.282
ATTAGCTG | 0.107
AAACATGC | 0.00059
AGTAACGC | -0.24
GGTTTACA | 0.0125
AAGGCCTG | -0.155
AGCGGGGC | -0.0517
AGCGAATG | 0.138
ACCATACG | -0.152
GGACGACA | -0.0723
CGCAGAAA | 0.00636
GGTAGTGA | 0.136
CAGTAAAG | -0.0638
AACGTTTC | -0.0951
AACACTGT | -0.0718
AATGAGAG | -0.0484
AACTTAAA | 0.0926

Sequence | PBM E-score
ATACTACA | 0.214
CACCAGCG | -0.0349
CCGCGGAC | -0.239
ATTGGCCC | -0.0572
GGGTAAAA | 0.0145
CCGTAAAA | 0.177
AGCAGCCT | 0.369
AAATTTCG | 0.138
ACACGGGG | -0.0128
AGGAAACC | 0.116
AGTCAGTG | -0.0506
CTTGCCCA | -0.0141
GACGGAAA | 0.00355
CTCCTCTA | 0.124
CACCAACG | -0.0171
AAAGCTAC | -0.0941
CTCTTACC | -0.0288
GCATTCGA | -0.175
CCCCCGCG | -0.0255
CAGCAAAA | 0.06
TCGTCTCA | -0.0595
CCCCGAAC | 0.0657
CAGTGGTA | 0.115
ACAGGGGC | -0.086
AAGACAGT | -0.0936

Sequence | PBM E-score
AGTAGAAG | 0.327
CCCGTACC | -0.0406
ACTAGGAT | 0.103
AACAGACT | -0.102
AGCTAGGA | 0.0251
AAGGGGAA | 0.156
GCACCCAC | 0.397
ATAAGCGG | 0.0191
AATCTGGG | 0.175
CACTCAGA | -0.0497
GTGGATTA | -0.102
AGCAGGAC | -0.0439
GTGGCCGA | -0.00122
CAGTTAGC | 0.0719
AAACTGAG | -0.163
AACGATCA | -0.186
AAATCGGT | -0.0156
TAGGAGAA | 0.0199
ACTCGAGC | -0.1
CCCTTCAA | 0.0622
AAACTCGT | -0.029
CCCCTGAC | -0.15
GATTCTCC | -0.05
TATGTGGA | 0.224
ATGACCGG | -0.125

Sequence | PBM E-score
AGTATTTC | 0.032
AGGTCGGC | -0.0908
AGATCCCT | -0.127
AACTCTAG | -0.0552
ACGGAGTG | -0.129
AGCGCCAT | 0.191
CAAGTACC | -0.0508
ATATGCGG | 0.0427
AGCCGCTC | -0.04
CTCCTCGC | -0.185
GGGACCCC | 0.00587
AAGGAGGT | -0.0668
CTGCTAAC | -0.0691
ACCACACC | -0.0525
CACCTTCA | -0.102
ACCCGTGA | -0.0368
AGCCGCTG | 0.0418
CTGGTAAC | 0.168
CCTGTCGA | -0.159
AGTTGCCA | 0.134
CTTCCCTA | -0.0119
ACTCCAAA | 0.116
ACCATCCC | -0.17
GGGGAAGA | -0.101
ATCGCTAG | -0.06

Sequence | PBM E-score
TGCGAACA | 0.0226
AATGACGG | 0.0781
CACAGGGG | -0.0496
CACTGTGC | -0.16
AAAATGAG | 0.146
TATGAAGA | 0.0942
GCATTTTA | 0.165
AGATGTGA | 0.0328
AAGCAATT | -0.0848
AAAACTCA | 0.0686
ACGGCACT | 0.0128
GAATGATA | 0.081
CATCGACC | -0.0578
CGTGTGAG | -0.221
ACGCGTTG | 0.0124
GCTGTTAA | 0.0207
CAGTGACG | -0.0872
ACAGCTAT | -0.158
CCGTCCTA | -0.158
ACGCTGAC | 0.0847
CAGGCCCA | -0.2
ATCGAAAC | -0.0701
GTACCAAC | -0.0534
CCTGCGCA | -0.0647
GCCTAAAA | 0.107

Sequence | PBM E-score
AGGAATCC | 0.459
CCAGTTCG | 0.104
CTTACGCC | -0.114
TACATCGA | 0.0964
ATCGGGTA | -0.136
AAATACGA | 0.156
ACGCTACC | -0.00855
ACTCCTTG | -0.097
GCCAACCC | -0.101
GAGGTTAA | -0.123
AGCGATTC | -0.0651
ATTTTATC | 0.138
AGAGGCCC | 0.0542
CAATTACC | 0.157
ATTCTCGA | 0.172
GCTTAGTA | -0.128
ATCGTGAC | 0.0576
CTGCTACC | -0.0201
AGTGAACG | -0.0715
CCATAGTA | -0.0273
CGCCGGAG | -0.0634
AACTAAAC | 0.0338
CTTTCGCA | -0.0299
CTTCGGTC | -0.0315
ATCTAAAT | 0.0297

Sequence | PBM E-score
GGGGTCCA | 0.0846
CAAGGTAG | -0.125
ACGAGGCA | -0.174
CGGTCGTA | -0.112
GCAAAAGC | -0.11
CGGCAAAA | 0.0366
CACGAGGC | 0.00318
GCCATCGA | -0.187
CAGGAGGC | 0.113
AATATGCA | -0.0622
AATGAGCT | -0.0086
ATCGCAAC | 0.0352
GATGTAGC | -0.0988
GGAAGTCC | 0.258
ATCAGACC | 0.0447
GACTATCA | -0.176
ATCAAAAC | 0.0109
CGTCGATA | -0.165
CAGTTGGA | -0.0721
CTGATTCA | 0.05
TCTCACAA | -0.08
ACCTCTTA | 0.127
AAAGGCTC | -0.0706
AGTAATCC | -0.0203
AGGGCGAG | -0.263

Sequence | PBM E-score
ACGAGGGC | 0.118
GCCTCATA | -0.0347
ACGGATGG | -0.138
CATTGCCC | -0.123
ATGTTAAA | 0.108
CCCTGATA | -0.103
GAAGAGTC | -0.129
ACTCAAGC | -0.149
GATCGCAC | -0.0107
CTGGACCC | -0.0397
ACGATCTA | -0.177
CGGTAAAG | -0.0673
GACAGCAA | -0.143
ACTGGTCG | 0.124
GATGTTTA | 0.0319
ATAATAGA | 0.0677
CGACCACC | 0.015
ATCCGCGG | -0.0453
GTGACCCA | 0.132
CTACCACC | 0.0268
CGTGCACG | -0.215
AATTGAAT | -0.161
CCACCACC | 0.124
AGTGTTCG | 0.00276
CGATACCC | 0.0179

Sequence | PBM E-score
AATAACGA | 0.125
CATACATA | 0.0456
AATCGAGT | 0.00756
ATACACGA | 0.138
AGACAGGC | -0.152
AAGGTCCT | -0.0902
CACTCTCA | 0.00231
GAAATTAA | 0.116
ACAGATCA | -0.134
GGCGTGGA | -0.111
CACATAGA | 0.0762
TAAAATTA | -0.00806
AGAACCCG | 0.175
ATTTATCC | 0.0625
TCATAACA | 0.018
CCTTACGA | -0.0419
ATCTCTAA | 0.0478
AATCTGAA | 0.161
ACGGCCAA | -0.111

— the supplement of paper PMC3334620
